PubChem BioAssay AID2100 (National Center for Advancing Translational Sciences (NCATS), 2009)
Values joined by “and” are separate entries in the source; they are usually repeats but may differ in a detail not shown here. Equal values may be shown once. Screen size: about 300,000 compounds; about 1,200 (0.4%) were called active. The inconclusive results got no clear call from the source; some entries with a clear call stand among them for comparison. Calls come from the whole dose curve; as a rule, active = well fitted inhibition curve with a large enough effect; inconclusive = small, poorly fitted or top-dose-only effect, or another doubt; inactive = no such curve, though single readings can be large or run the other way. A potency beside an inconclusive call is a rough fit, not a confirmed value.

target: Lysosomal alpha-glucosidase (Homo sapiens) (UniProt P10253); assay: qHTS Assay for Inhibitors and Activators of Human alpha-Glucosidase Cleavage of Glycogen; conditions: recombinant GAA, glycogen substrate, Amplex Red glucose oxidase fluorescence; activity change, negative = inhibition: at 76.4 µM (top of the series) unless noted;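 for activity change, negative = inhibition: 0% = full enzyme reaction and -100% = no-enzyme basal signal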
Description: NIH Chemical Genomics Center [NCGC] NIH Molecular Libraries Probe Production Centers Network [MLPCN] MLPCN Grant: R03 MH084841-01 Assay Submitter (PI): Wei Zheng NCGC Assay Overview: Alpha-glucosidase is responsible for the hydrolysis of terminal, non-reducing 1,4-linked alpha-D-glucose residues, which releases alpha-D-glucose. It is a lysosomal hydrolase that is required for the degradation of a small percentage (1-3%) of cellular glycogen in humans. Deficiency of this enzyme results in glycogen-storage disease type II (GSDII), also referred to as Pompe disease, an autosomal recessive disorder. Structurally normal glycogen is accumulated in the lysosomes and cytoplasm in affected patients, primarily in muscle tissues. Excessive glycogen storage within lysosomes may interrupt normal functioning of other organelles and leads to cellular injury. In turn, this leads to enlargement and dysfunction of the entire organ involved (eg: cardiomyopathy and muscle weakness). It has been reported that the improper folding and trafficking of alpha-glucosidase resulting from genetic mutations may account for a significant number of Pompe patients. […] We optimized this alpha-glucosidase assay in 1536-well plate format for identification of novel small molecule inhibitors or activators with structures other than the sugar analogs in order to develop new pharmacological chaperones. Previous assays of alpha-Glucosidase have utilized a non-natural fluorescent substrate to probe enzyme activity. The present assay measures enzyme activity on glycogen using a coupled-assay system to glucose oxidase.
NCGC Assay Protocol Summary: This is an enzyme assay using glycogen from bovine liver (Sigma catalog #: G0885) as the substrate and recombinant human alpha-glucosidase as the enzyme preparation. Upon hydrolysis of the substrate, the glucose product can be detected using the Amplex Red Glucose Oxidase Assay Kit (Invitrogen catalog #: A22189). The product of this reaction can be read with a fluorescence plate reader with an excitation at 573 nm and an emission at 610 nm. Data were normalized to the controls for basal activity (without enzyme) and 100% activity (with enzyme). The AC50 values were determined from concentration-response data modeled with the standard Hill equation. Assay buffer for enzyme reaction: 50 mM citric acid (titrated with potassium phosphate to pH 5.0), 0.01% Tween-20 (pH 5.0 is an optimal condition for this enzyme assay) Assay buffer for Amplex Red reaction: Tris-HCl, pH 7.5 1536-well assay protocol for the alpha-glucosidase assay: (1) Add 2 ul/well alpha-glucosidase enzyme solution (4 nM final) (2) Add 23 nL compounds in DMSO solution. The final titration was 0.7 nM to 77 uM. (3) Add 1 ul of glycogen substrate solution (30 ug) (4) Incubate at 37 C for 40 min (5) Add 2 ul tris-HCl buffer with Amplex Red reagents (6) Incubate 45 min at room temperature. (7) Detect the assay plate in a ViewLux plate reader (PerkinElmer) with Ex=573 nm and Em=610nm. Keywords: Alpha-glucosidase, Pompe Disease, pharmacological chaperone, chaperone therapy, high throughput screening, alpha-glucosidase inhibitor, MLSMR, MLSCN, NIH Roadmap, qHTS and NCGC
Potency is the fitted concentration of half-maximal effect.

| SMILES | Potency | activity change, negative = inhibition |
| --- | --- | --- |
| COc1ccc([N+](=O)[O-])cc1N(CC(O)CN1CCCCC1)S(=O)(=O)c1ccc(C)cc1 (stereo not given) | inconclusive: 50.1 µM [inhibitor, single point] | – |
| COCC(=O)Oc1c(Sc2ccccc2[N+](=O)[O-])c(C)nn1C(C)(C)C | inconclusive: 22.4 µM [inhibitor, single point] | – |
| COc1ccc(CN2C(=O)Cc3c2nc(N)c2c(N)nc(N4CCCCC4)c(C#N)c32)cc1 | inconclusive: 31.6 µM [activator, single point] | – |
| CCCn1c(=O)c2sccc2n2c(CCCC(=O)Nc3cccc(CC)c3)nnc12 | – | inactive: -8.3% [at 76.3 µM] |
| O=[N+]([O-])c1ccc(C2Nc3cccc4cccc(c34)N2)cc1 | inconclusive: 11.2 µM [inhibitor, partial curve] | – |
| CC1=NNC(=O)C1CC(=O)N/N=C/C=C/c1ccccc1 (stereo not given) | inconclusive: 39.8 µM [inhibitor, single point] | – |
| Oc1cccc(C=NCc2ccccc2)c1O | inconclusive: 19.8 µM [inhibitor, partial curve] | – |
| O=C(NC(=S)NNC(=O)c1cccs1)c1ccco1 | active: 28.2 µM | – |
| Nc1cc(-c2ccccc2)ccc1O | active: 11.1 µM and active: 10 µM | – |
| CC(=O)N1CCN(c2ccc(NCc3ccccc3)cc2)CC1 | active: 14 µM | – |
| CC(CNc1ccccc1O)C(=O)O (stereo not given) | inconclusive: 11.2 µM [inhibitor, single point] | – |
| Cc1occc1C(=O)NNC(=S)Nc1cccc([N+](=O)[O-])c1 | inconclusive: 17.6 µM [inhibitor, partial curve] | – |
| CCN(CC)S(=O)(=O)c1ccc(C(=O)NCc2n[nH]c(=S)n2-c2ccc(Cl)c(Cl)c2)cc1 | inconclusive: 39.8 µM [inhibitor, single point] | – |
| COCCn1nnnc1C(c1cc2c(C)cc(C)cc2[nH]c1=O)N1CCCCCC1 (stereo not given) | inconclusive: 3.14 µM [inhibitor, single point] | – |
| Oc1ccc(Nc2nc(-c3ccccc3)nc3ccccc23)cc1 | inconclusive: 39.8 µM [inhibitor, single point] | – |
| Cc1nnc(N2CCN(c3ccccc3F)CC2)c2c1nnn2Cc1ccccc1 | – | inactive: -7.62% [at 76.3 µM] |
| Clc1ccc(Oc2ncnc3oc(-c4ccccc4)cc23)cc1 | – | inactive: -0.587% |
| Cc1nn(C)cc1C(=O)NNC(=S)Nc1ccccc1 | inconclusive: 8.91 µM [inhibitor, partial curve] | – |
| CC1=C([N+](=O)[O-])C(c2ccccc2)C2=C(N1)c1ccccc1C2=O (stereo not given) | inconclusive: 35.5 µM [inhibitor, single point] | – |
| CCOC(=O)COc1ccc(/C=C2/C(=O)NN(c3ccc(F)cc3)C2=O)cc1OC | inconclusive: 28.2 µM [inhibitor, partial curve] | – |
| Cn1c(-c2ccc(F)cc2)cnc1NCc1ccc(F)cc1 | active: 44.7 µM | – |
| COc1ccc(/C(C)=N/Nc2ccccc2Cl)c(O)c1 | inconclusive: 28.2 µM [inhibitor, partial curve] | – |
| O=S(=O)(Nc1ccc(S(=O)(=O)Nc2ccccc2)cc1)c1ccccc1 | – | inactive: -9.38% |
| O=C(CSc1nnc(-c2ccccc2)n1-c1ccc(Cl)cc1)NNC(=S)Nc1ccccc1 | inconclusive: 50.1 µM [inhibitor, single point] | – |

| SMILES | Potency | activity change, negative = inhibition |
| --- | --- | --- |
| O=C(c1ccccc1)c1cccn1CC(=O)N1CCc2ccccc2C1 | inconclusive: 11.2 µM [inhibitor, single point] | – |
| Cc1ccc(C)c(NC(=S)N/N=C2/CCCCc3ccccc32)c1 | inconclusive: 17.6 µM [inhibitor, partial curve] | – |
| N#C/C(=C\c1ccc(OCCN2CCOCC2)cc1)C(=O)Nc1ccccc1F | inconclusive: 35.5 µM [inhibitor, single point] | – |
| COc1cc(/C=N/Nc2cc(C)nc(NS(=O)(=O)c3ccccc3)n2)ccc1O | inconclusive: 10 µM [inhibitor, partial curve, poor fit] | – |
| O=C(OCc1nnc(-c2ccccc2)o1)c1ccc2c(c1)OCO2 | – | inconclusive: 16.8% [activator] |
| Cc1ccc(Nc2c(-c3cccc(Cl)c3)nc3cccc(C)n23)cc1 | inconclusive: 8.91 µM [inhibitor, partial curve] | – |
| COc1ccc(NS(=O)(=O)c2cc(NC(=O)c3ccccc3F)ccc2N2CCCC2)cc1 | inconclusive: 3.14 µM [inhibitor, full curve] | – |
| CCOC(=O)CNc1c(-c2ccc(O)cc2)nc2ccccn12 | active: 35.2 µM | – |
| COc1ccc2c(Cl)c(C(=O)N/N=C3\CCCC(=O)C3)sc2c1 | inconclusive: 6.31 µM [inhibitor, full curve] | – |
| CCOc1ccccc1CNC(=O)c1ccc(Cn2c(=O)c3cccn3c3cccnc32)cc1 | – | inactive: 11.1% [at 76.3 µM] |
| COc1cc(/C=C(\C#N)c2nc3c(s2)CCCC3)ccc1O | inconclusive: 19.8 µM [inhibitor, partial curve] | – |
| CCOC(=O)c1c(NC(=O)CN2C(=O)NC(C)(c3ccccc3)C2=O)sc(C)c1C (stereo not given) | – | inactive: 8.04% |
| CCn1c(=O)n(CC)c2cc(S(=O)(=O)Nc3ccccc3C)c(C)cc21 | – | inactive: -0.141% |
| COc1cc2c(cc1OC)CN(c1nc(CN3CCCC3)nc3sc(C)c(C)c13)CC2 | inconclusive: 50.1 µM [activator, single point] | – |
| COc1ccc(C(=O)Nc2cc(C(C)=O)c(C)oc2=O)cc1 | inconclusive: 25.1 µM [inhibitor, single point] | – |
| O=C(Nc1ccc(N2CCOCC2)c(Cl)c1)c1c(F)c(F)c(F)c(F)c1F | – | inactive: 2.82% |
| CN1CCc2c(sc3c2C(=O)NC(c2ccc(-c4ccc(Cl)cc4)o2)N3)C1 (stereo not given) | inconclusive: 39.5 µM [activator, single point] | – |
| CC(=O)c1ccc(NC(=O)COc2ccccc2-c2nc(C)no2)cc1 | active: 7.08 µM | – |
| COc1cc(NC(=O)COC(=O)/C=C/c2ccc(O)c(OC)c2)cc(OC)c1 | inconclusive: 11.2 µM [inhibitor, partial curve] | – |
| O=C(Nc1ccccc1)C(Cl)C(=O)c1ccccc1 (stereo not given) | inconclusive: 31.6 µM [activator, single point] | – |
| COC(=O)c1c(-c2cccs2)csc1NC(=O)COc1ccc(C(C)C)cc1 | – | inactive: 2.52% [at 76.3 µM] |
| O=C(O)Cc1c[nH]c2cccc(O)c12 | inconclusive: 12.6 µM [inhibitor, partial curve] | – |
| COc1cc(/C=N/NC(=O)c2cccc(NC(=O)c3ccccc3Cl)c2)ccc1O | inconclusive: 15.8 µM [inhibitor, partial curve] | – |
| O=C(COc1ccc(Cl)cc1Cl)Nc1ccc(C(=O)OC2CCCCC2)cc1 | – | inactive: -12.3% [at 76.3 µM] |

| SMILES | Potency | activity change, negative = inhibition |
| --- | --- | --- |
| COc1cc(/C=N/N2CCN(c3ccccc3OC)CC2)ccc1O | inconclusive: 8.91 µM [inhibitor, full curve] | – |
| Cn1cnc([N+](=O)[O-])c1Nc1ccccc1O | active: 7.88 µM | – |
| O=C1CCC/C(=N/Nc2ccc(Cl)cc2)C1 | inconclusive: 25.1 µM [inhibitor, partial curve] | – |
| Cc1nc(C)c(-c2csc(Nc3ccc(N)cc3)n2)s1 | inconclusive: 10 µM [inhibitor, single point] | – |
| CCCc1ccc(C(=O)NNc2cccc(C)c2)cc1 | active: 15.8 µM | – |
| COc1ccc(N/C=C(\C(C)=O)c2ccc(OC)c(OC)c2)cc1OC | inconclusive: 22.4 µM [inhibitor, partial curve, poor fit] | – |
| NC(=O)c1ccc2c(=O)c(O)c(-c3cc(Cl)c(N)c(Cl)c3)[nH]c2c1 | inconclusive: 15.8 µM [inhibitor, partial curve] | – |
| COc1ccc(NC(=O)CC2Nc3cc(C)c(C)cc3NC2=O)c([N+](=O)[O-])c1 (stereo not given) | inconclusive: 24.9 µM [activator, partial curve] | – |
| CC(=O)N1c2ccc(S(=O)(=O)N3CCCCC3)cc2CC1C(=O)NCc1ccc(N(C)C)cc1 (stereo not given) | inconclusive: 35.5 µM [inhibitor, partial curve] | – |
| CCOc1ccc(S(=O)(=O)N(CC)CC(=O)N2CCCC2)cc1 | – | inactive: 0.323% [at 76.3 µM] |
| Cc1ccc(C)n1-c1ccccc1N | inconclusive: 28.2 µM [activator, single point] | – |
| Cc1ccc2oc(C(=O)Nc3ccc(S(=O)(=O)Nc4ncccn4)cc3)cc(=O)c2c1 | – | inactive: 2.7% [at 76.3 µM] |
| O=S(=O)(NCc1ccc(Cl)cc1)NCc1ccccc1F | inconclusive: 10 µM [inhibitor, partial curve] | – |
| CCN1CCCC1CN(Cc1cc2cc(C)cc(C)c2[nH]c1=O)C(=O)Nc1ccccc1OC (stereo not given) | inconclusive: 22.2 µM [activator, single point] | – |
| CCCN1CCCc2cc(CN(CCCN3CCOCC3)C(=O)Nc3ccc(OCC)cc3)ccc21 | active: 3.52 µM | – |
| Cn1c(=O)c2[nH]c(-c3ccccc3)c(O)c2n(C)c1=O | inconclusive: 28.2 µM [inhibitor, partial curve] | – |
| C=CC[n+]1c(-c2ccc(OC)cc2)csc1NNC(=O)Nc1ccccc1 | active: 20 µM | – |
| CC(Sc1ccccc1)C(=O)N1CCN(S(=O)(=O)c2ccccc2F)CC1 (stereo not given) | – | inactive: -12% [at 76.3 µM] |
| CC[C@H](C)C(=O)O[C@H]1C[C@@H](C)C=C2C=C[C@H](C)[C@H](CC[C@@H]3C[C@@H](O)CC(=O)O3)[C@H]21 | – | inactive: -1.13% |
| COc1ccccc1/C=N/Nc1cc(C)nc2ccc(C)cc12 | inconclusive: 22.4 µM [inhibitor, partial curve] | – |
| COc1ccccc1Nc1nc(-c2cccc([N+](=O)[O-])c2)nc2ccccc12 | – | inconclusive: 23.1% [activator] |
| CN1CCOC(=O)/C1=N/Nc1cc(Cl)ccc1Cl | inconclusive: 31.6 µM [inhibitor, partial curve] | – |
